Some of the results follow. Sequences were assembled here from the parent chain. Inactive controls read about 0.05.
B1: TEV protease; numbered along this chain (parent)
chain: MGESLFKGPRDYNPISSSICHLTNESDGHTTSLYGIGFGPFIITNKHLFRRNNGTLVVQSLHGVFKVKDTTTLQQHLVDGRDMIIIRMPKDFPPFPQKLKFREPQREERICLVTTNFQTKSMSSMVSDTSCTFPSGDGIFWKHWIQTKDGQCGSPLVSTRDGFIVGIHSASNFTNTNNYFTSVPKNFMELLTNQEAQQWVSGWRLNADSVLWGGHKVFMVKPEEPFQPVKEATQL

Variants of: B1
Experiment: raw area under fraction-flipped curve 0-4 h after induction (AUC4h, not background-subtracted), DNA-recorder readout of cleavage of the substrate (dimensionless); higher = more cleavage of the substrate by the protease variant
Conditions: temperature: 34 °C; time window: 0-4 h after rhamnose induction
Description: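 In vivo DNA recorder in E. coli TOP10(DE3) ΔrhaA at 34 °C. Each TEVp single-site mutant (parent TEVp 0) is paired with a single-site variant of the 7-mer TEVs (canonical ENLYFQ|S). The substrate sits between flexible linkers in a Bxb1-sfGFP-TEVs-SsrA fusion, so cleavage stabilises Bxb1 and speeds flipping of a recombination array, read by NGS. The value is the raw area under the fraction-flipped curve over 0-4 h after rhamnose induction (AUC4h), with ≥20 reads per time point. It is not background-subtracted; inactive controls average about 0.047.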
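Also: Bxb1 expression induced with 0.2% (w/v) L-rhamnose at OD600 near 0.5, cultures sampled hourly, flipped fraction per protease–substrate barcode pair counted by paired-end Illumina sequencing.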

| Variant | area with substrate DNLYFQS | area with substrate FNLYFQS | area with substrate GNLYFQS | area with substrate HNLYFQS | area with substrate INLYFQS | area with substrate KNLYFQS | area with substrate MNLYFQS | area with substrate PNLYFQS | area with substrate RNLYFQS | area with substrate VNLYFQS | area with substrate WNLYFQS | area with substrate YNLYFQS | area with substrate LNLYFQS | area with substrate NNLYFQS | area with substrate SNLYFQS | area with substrate TNLYFQS | area with substrate QNLYFQS | area with substrate CNLYFQS |
| --- | --- | --- | --- | --- | --- | --- | --- | --- | --- | --- | --- | --- | --- | --- | --- | --- | --- | --- |
| MGESLFKGPRDYNPIPSSICHLTNESDGHTTSLYGIGFGPFIITNKHLFRRNNGTLVVQSLHGVFKVKDTTTLQQHLVDGRDMIIIRMPKDFPPFPQKLKFREPQREERICLVTTNFQTKSMSSMVSDTSCTFPSGDGIFWKHWIQTKDGQCGSPLVSTRDGFIVGIHSASNFTNTNNYFTSVPKNFMELLTNQEAQQWVSGWRLNADSVLWGGHKVFMVKPEEPFQPVKEATQL [S16P] | 0.0777 | 0.0667 | 0.115 | 0.0596 | 0.0608 | 0.0643 | 0.0453 | 0.0594 | 0.0564 | 0.0712 | 0.063 | 0.0557 |  |  |  |  |  |  |
| MGESLFKGPRDYNPVSSSICHLTNESDGHTTSLYGIGFGPFIITNKHLFRRNNGTLVVQSLHGVFKVKDTTTLQQHLVDGRDMIIIRMPKDFPPFPQKLKFREPQREERICLVTTNFQTKSMSSMVSDTSCTFPSGDGIFWKHWIQTKDGQCGSPLVSTRDGFIVGIHSASNFTNTNNYFTSVPKNFMELLTNQEAQQWVSGWRLNADSVLWGGHKVFMVKPEEPFQPVKEATQL [I15V] | 0.0659 |  | 0.0487 | 0.0619 | 0.0646 | 0.0929 |  |  |  |  | 0.0735 |  | 0.065 | 0.0595 | 0.0365 | 0.0739 |  |  |
| MGESLFNGPRDYNPISSSICHLTNESDGHTTSLYGIGFGPFIITNKHLFRRNNGTLVVQSLHGVFKVKDTTTLQQHLVDGRDMIIIRMPKDFPPFPQKLKFREPQREERICLVTTNFQTKSMSSMVSDTSCTFPSGDGIFWKHWIQTKDGQCGSPLVSTRDGFIVGIHSASNFTNTNNYFTSVPKNFMELLTNQEAQQWVSGWRLNADSVLWGGHKVFMVKPEEPFQPVKEATQL [K7N] | 0.0894 |  | 0.0678 | 0.055 | 0.0611 |  |  | 0.0731 |  | 0.0689 | 0.0628 | 0.0651 | 0.0604 |  | 0.0457 | 0.056 |  |  |
| MGESLFKGPRDYNVISSSICHLTNESDGHTTSLYGIGFGPFIITNKHLFRRNNGTLVVQSLHGVFKVKDTTTLQQHLVDGRDMIIIRMPKDFPPFPQKLKFREPQREERICLVTTNFQTKSMSSMVSDTSCTFPSGDGIFWKHWIQTKDGQCGSPLVSTRDGFIVGIHSASNFTNTNNYFTSVPKNFMELLTNQEAQQWVSGWRLNADSVLWGGHKVFMVKPEEPFQPVKEATQL [P14V] | 0.0871 | 0.0684 | 0.0752 | 0.0613 | 0.065 | 0.107 | 0.0675 | 0.0624 |  |  | 0.0642 | 0.06 | 0.0624 | 0.0631 |  | 0.0491 |  |  |
| MGESLFKGPRDYNQISSSICHLTNESDGHTTSLYGIGFGPFIITNKHLFRRNNGTLVVQSLHGVFKVKDTTTLQQHLVDGRDMIIIRMPKDFPPFPQKLKFREPQREERICLVTTNFQTKSMSSMVSDTSCTFPSGDGIFWKHWIQTKDGQCGSPLVSTRDGFIVGIHSASNFTNTNNYFTSVPKNFMELLTNQEAQQWVSGWRLNADSVLWGGHKVFMVKPEEPFQPVKEATQL [P14Q] | 0.0962 |  | 0.0697 |  |  | 0.0747 | 0.0537 | 0.0733 | 0.0692 |  | 0.0563 | 0.0602 | 0.0642 | 0.0655 | 0.0647 | 0.0608 | 0.0766 |  |
| MGEFLFKGPRDYNPISSSICHLTNESDGHTTSLYGIGFGPFIITNKHLFRRNNGTLVVQSLHGVFKVKDTTTLQQHLVDGRDMIIIRMPKDFPPFPQKLKFREPQREERICLVTTNFQTKSMSSMVSDTSCTFPSGDGIFWKHWIQTKDGQCGSPLVSTRDGFIVGIHSASNFTNTNNYFTSVPKNFMELLTNQEAQQWVSGWRLNADSVLWGGHKVFMVKPEEPFQPVKEATQL [S4F] | 0.0967 | 0.0716 |  |  |  | 0.0924 | 0.0742 | 0.0639 | 0.0731 | 0.0702 | 0.0666 | 0.0623 | 0.0687 |  |  | 0.0779 |  |  |
| MGESLFKGPRDYNPISSSICHLTNESDGHTTSLYGIGFGPFIITNKHLFRRNNGTLVVQSLHGVFKVKDTTTLQQHLVDGRDMIIIRMPKDFPPFPQKLKFREPQREERICLVTTNFQTKSMSSMVSDTSCTFPSGDGIFWKHWIQTKDGQCGSPLVSTRDGFIVGIHSASNFTNTNNYFTSVPKNFMELLTNQEAQQWVSGWRLNADSVLWGGHKVFMVKPEEPFQPVKEATQI [L235I] |  |  |  | 0.076 |  |  |  |  |  |  | 0.0191 |  | 0.0692 |  | 0.0545 |  |  | 0.07 |
| MGESLFKGPRDYNPISSSICHLTNESDGHTTSLYGIGFGPFIITNKHLFRRNNGTLVVQSLHGVFKVKDTTTLQQHLVDGRDMIIIRMPKDFPPFPQKLKFREPQREERICLVTTNFQTKSMSSMVSDTSCTFPSGDGIFWKHWIQTKDGQCGSPLVSTRDGFIVGIHSASNFTNTNNYFTSVPKNFMELLTNQEAQQWVSGWRLNADSVLWGGHKVFMVKPEEPFQPVKEATQS [L235S] |  | 0.0657 |  | 0.0652 |  |  | 0.0655 | 0.0761 |  |  | 0.061 | 0.051 |  |  | 0.0561 | 0.0724 |  | 0.101 |
| MGESLFKGPRDYNPISSSICHLTNESDGHTTSLYGIGFGPFIITNKHLFRRNNGTLVVQSLHGVFKVKDTTTLQQHLVDGRDMIIIRMPKDFPPFPQKLKFREPQREERICLVTTNFQTKSMSSMVSDTSCTFPSGDGIFWKHWIQTKDGQCGSPLVSTRDGFIVGIHSASNFTNTNNYFTSVPKNFMELLTNQEAQQWVSGWRLNADSVLWGGHKVFMVKPEEPFQPVKEATQN [L235N] |  |  | 0.0633 | 0.0654 |  | 0.0727 |  |  |  | 0.0682 |  | 0.0675 |  | 0.0672 | 0.0593 | 0.061 |  | 0.0828 |
| MGESLFKGPRDFNPISSSICHLTNESDGHTTSLYGIGFGPFIITNKHLFRRNNGTLVVQSLHGVFKVKDTTTLQQHLVDGRDMIIIRMPKDFPPFPQKLKFREPQREERICLVTTNFQTKSMSSMVSDTSCTFPSGDGIFWKHWIQTKDGQCGSPLVSTRDGFIVGIHSASNFTNTNNYFTSVPKNFMELLTNQEAQQWVSGWRLNADSVLWGGHKVFMVKPEEPFQPVKEATQL [Y12F] | 0.0806 | 0.0405 | 0.038 | 0.0691 | 0.079 | 0.0619 |  | 0.0626 |  |  | 0.0546 | 0.0777 |  | 0.0546 | 0.0667 | 0.0531 |  |  |

Reference: the supplement of paper PMC12217912
